Results taken from the supplement of paper PMC6531468.
This is one part of the list. Read counts after selection give these values, which scatter widely. Scores sum up all selected molecules that hold the word; the word was not tested alone.

Experiments:
Experiment in all cases: 6-mer SELEX enrichment z-score vs GST control; IMP3 is the RNA-binding protein IGF2BP3; higher = more enriched by binding
[1] = test system: IMP3 KH1-4; settings: construct: KH1-4 (164-579); SELEX round: R4
Protocol: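 SELEX-seq with GST-tagged IMP3 KH1-4 (Pro164-Lys579) and an N40 RNA pool, round 4. 6-mer z-score of sequence-tag enrichment normalised to the corresponding GST SELEX round; RNA k-mers written as DNA (T for U).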

[2] = test system: IMP3 RRM1-2; settings: construct: RRM1-2 (1-163); SELEX round: R2
Protocol: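 SELEX-seq with GST-tagged IMP3 RRM1-2 (Met1-Asn163) and an N40 RNA pool, round 2. 6-mer enrichment z-score normalised to GST SELEX. RNA written as DNA (T = U).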

[3] = target: IMP3 full-length (UniProt O00425); settings: construct: FL IMP3 (1-579); SELEX round: R4
Protocol: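 SELEX-seq with GST-tagged full-length IMP3 and an N40 RNA pool, round 4. Each 6-mer is scored as an enrichment z-score of sequence tags containing it, normalised to the matching GST SELEX round. RNA written as DNA (T = U).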

[4] = test system: IMP3 KH1-2; settings: construct: KH1-2 (164-376); SELEX round: R4
Protocol: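 SELEX-seq with GST-tagged IMP3 KH1-2 (Pro164-Phe376) and an N40 RNA pool, round 4 (stringent 300/600 mM KCl washes). 6-mer z-score of sequence-tag enrichment normalised to the corresponding GST SELEX round; RNA k-mers written as DNA (T for U).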

[5] = test system: IMP3 KH3-4; settings: construct: KH3-4 (377-579); SELEX round: R4
Protocol: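 SELEX-seq with GST-tagged IMP3 KH3-4 (Pro377-Lys579) and an N40 RNA pool, round 4. 6-mer z-score of sequence-tag enrichment normalised to the corresponding GST SELEX round; RNA k-mers written as DNA (T for U).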

Sequence of IMP3 KH1-4 (chain, as listed by the source): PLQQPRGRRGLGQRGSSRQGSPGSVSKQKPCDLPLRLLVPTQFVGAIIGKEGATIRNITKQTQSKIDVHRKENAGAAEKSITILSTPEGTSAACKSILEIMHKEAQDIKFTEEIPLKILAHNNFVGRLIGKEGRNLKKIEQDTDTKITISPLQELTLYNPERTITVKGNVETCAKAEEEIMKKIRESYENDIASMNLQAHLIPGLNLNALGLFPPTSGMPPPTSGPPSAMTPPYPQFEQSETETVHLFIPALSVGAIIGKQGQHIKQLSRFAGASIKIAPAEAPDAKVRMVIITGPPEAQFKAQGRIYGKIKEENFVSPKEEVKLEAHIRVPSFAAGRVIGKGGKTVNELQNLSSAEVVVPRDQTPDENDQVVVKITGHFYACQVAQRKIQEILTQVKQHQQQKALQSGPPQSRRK
Sequence of IMP3 KH1-2 (chain, as listed by the source): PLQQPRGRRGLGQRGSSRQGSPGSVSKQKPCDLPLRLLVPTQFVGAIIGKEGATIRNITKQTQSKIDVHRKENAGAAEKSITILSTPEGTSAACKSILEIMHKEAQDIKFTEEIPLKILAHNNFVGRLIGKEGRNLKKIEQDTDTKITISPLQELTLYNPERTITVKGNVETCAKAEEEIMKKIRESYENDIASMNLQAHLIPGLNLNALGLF
Sequence of IMP3 RRM1-2 (chain, as listed by the source): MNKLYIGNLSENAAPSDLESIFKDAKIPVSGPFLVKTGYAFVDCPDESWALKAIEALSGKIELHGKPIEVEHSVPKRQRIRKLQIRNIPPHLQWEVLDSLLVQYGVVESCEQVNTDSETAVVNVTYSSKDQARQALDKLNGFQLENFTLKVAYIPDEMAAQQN
Sequence of UniProt O00425 (O00425 whole entry): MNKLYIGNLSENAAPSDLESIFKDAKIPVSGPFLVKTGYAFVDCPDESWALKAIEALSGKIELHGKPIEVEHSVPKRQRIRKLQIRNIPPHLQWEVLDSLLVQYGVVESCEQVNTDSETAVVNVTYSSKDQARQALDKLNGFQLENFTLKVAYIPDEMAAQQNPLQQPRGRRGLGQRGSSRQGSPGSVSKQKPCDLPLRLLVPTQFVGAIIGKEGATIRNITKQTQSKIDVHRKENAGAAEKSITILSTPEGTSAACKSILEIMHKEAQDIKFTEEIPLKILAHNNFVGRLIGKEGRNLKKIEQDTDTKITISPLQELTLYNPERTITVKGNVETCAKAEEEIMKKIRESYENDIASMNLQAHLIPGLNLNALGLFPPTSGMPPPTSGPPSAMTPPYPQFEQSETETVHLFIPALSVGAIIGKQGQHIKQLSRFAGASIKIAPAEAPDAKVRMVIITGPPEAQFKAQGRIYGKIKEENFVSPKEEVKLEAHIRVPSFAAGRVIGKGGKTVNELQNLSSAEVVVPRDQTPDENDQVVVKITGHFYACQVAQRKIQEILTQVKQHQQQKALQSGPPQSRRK
Sequence of IMP3 KH3-4 (chain, as listed by the source): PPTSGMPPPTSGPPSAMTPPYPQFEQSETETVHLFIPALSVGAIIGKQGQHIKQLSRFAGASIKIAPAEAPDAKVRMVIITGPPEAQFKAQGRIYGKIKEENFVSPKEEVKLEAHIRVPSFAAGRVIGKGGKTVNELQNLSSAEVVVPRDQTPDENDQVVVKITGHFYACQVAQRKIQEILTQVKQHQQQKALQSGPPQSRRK

Row | Sequence | 6-mer SELEX enrichment z-score [1] | 6-mer SELEX enrichment z-score [2] | 6-mer SELEX enrichment z-score [3] | 6-mer SELEX enrichment z-score [4] | 6-mer SELEX enrichment z-score [5]
1 | ATAAGG | 0.882 | -0.135 | 0.198 | 0.741 | 1.51
2 | GGTGTG | 0.176 | 0.231 | 0.128 | 0.199 | 0.23
3 | TGGGCA | 0.151 | 0.309 | 0.712 | 0.211 | 0.287
4 | TAGACA | 0.383 | 0.133 | 0.047 | 0.306 | 0.446
5 | GTCAAA | -0.908 | -0.377 | -0.62 | -1.02 | -0.822
6 | CCAGTC | 0.629 | 0.194 | 0.469 | 0.278 | -0.233
7 | CCCGAT | -1.07 | -0.734 | -0.958 | -0.955 | -1.35
8 | CGTGAG | -0.703 | -0.271 | -0.308 | -0.596 | -0.561
9 | GGTGGG | 0.739 | 0.281 | 0.596 | 1.01 | 0.803
10 | GAGGTA | -0.456 | -0.126 | -0.119 | -0.341 | -0.168
11 | TTCGAC | -0.979 | 0.005 | -0.555 | -0.905 | -0.958
12 | GACAAG | -0.168 | -0.628 | -0.336 | -0.268 | -0.196
13 | ATCGTC | -0.028 | 0.3 | 0.415 | -0.15 | -0.147
14 | GTATAA | 0.408 | -0.346 | -0.222 | 0.341 | 0.91
15 | ACACTG | 1.2 | 0.731 | 1.01 | 1.28 | 0.498
16 | TTATTT | 1.31 | 0.458 | 0.432 | 1.15 | 1.72
17 | ACTTAT | 1.04 | 0.165 | 0.086 | 0.916 | 1.25
18 | GACGCT | -0.5 | -0.3 | -0.204 | -0.379 | -0.378
19 | GAACGT | -2.07 | -0.913 | -1.45 | -1.97 | -1.84
20 | TCCCGA | -1.92 | -0.809 | -1.32 | -1.68 | -1.84

Row | Sequence | 6-mer SELEX enrichment z-score [1] | 6-mer SELEX enrichment z-score [2] | 6-mer SELEX enrichment z-score [3] | 6-mer SELEX enrichment z-score [4] | 6-mer SELEX enrichment z-score [5]
21 | CATACC | -0.47 | 0.472 | 0.003 | -0.392 | -1.04
22 | AGAGGG | 0.885 | -0.353 | 0.292 | 1.12 | 1.15
23 | GTCTAG | -0.34 | 0.232 | -0.064 | -0.257 | -0.144
24 | CAAAGT | -0.51 | -0.459 | -0.395 | -0.759 | -0.576
25 | CTGTGG | 0.117 | 0.199 | 0.091 | 0.112 | 0.109
26 | ACCTCG | -1.84 | -0.279 | -0.919 | -1.65 | -1.8
27 | GACTAC | -0.342 | -0.476 | -0.62 | -0.251 | -0.422
28 | TAGCAG | 0.673 | 0.218 | 0.475 | 0.542 | 0.533
29 | TCCGTT | 0.272 | 0.166 | 0.169 | 0.47 | 0.041
30 | ATAAGT | 0.801 | -0.11 | 0.109 | 0.523 | 1.09
31 | CTCAAA | -1.31 | -0.17 | -0.934 | -1.1 | -1.39
32 | TCAAAT | 0.31 | 0.412 | 0.334 | 0.418 | 0.465
33 | AACAGT | 0.444 | 0.262 | 0.827 | 0.363 | 0.288
34 | CGTTAT | -0.019 | 0.14 | -0.069 | 0.015 | 0.091
35 | GGAATA | 0.9 | -0.774 | -0.312 | 0.582 | 1.25
36 | CTACAA | 0.347 | 0.404 | -0.006 | 0.541 | 0.149
37 | TCCTTC | 0.876 | 0.365 | 0.118 | 0.797 | 0.287
38 | TGACCC | -1.18 | -0.994 | -1.36 | -1.14 | -1.72
39 | CTGACG | -1.21 | -0.598 | -0.865 | -1.08 | -1.19
40 | TTGTTA | 0.316 | 0.34 | -0.011 | 0.198 | 0.41

Row | Sequence | 6-mer SELEX enrichment z-score [1] | 6-mer SELEX enrichment z-score [2] | 6-mer SELEX enrichment z-score [3] | 6-mer SELEX enrichment z-score [4] | 6-mer SELEX enrichment z-score [5]
41 | GTGACG | -0.103 | -0.424 | -0.096 | -0.206 | -0.115
42 | GAGATT | 0.436 | -0.299 | -0.131 | 0.318 | 0.794
43 | TCTCAG | -0.377 | 0.527 | 0.313 | -0.249 | -0.272
44 | AACCGG | -0.868 | -1.34 | -0.547 | -0.913 | -0.938
45 | CGCGCG | -1.21 | 0.259 | -0.167 | -0.941 | -0.956
46 | CTAGTG | -0.329 | 0.012 | -0.197 | -0.34 | -0.261
47 | TTACTG | 0.773 | 0.027 | -0.045 | 0.74 | 0.67
48 | CGCCTC | -0.943 | -0.037 | -0.209 | -0.72 | -0.954
49 | AAAGTT | -0.168 | -0.578 | -0.649 | -0.437 | -0.04
50 | CTCTTT | 0.489 | 0.415 | 0.197 | 0.606 | 0.486
51 | CAAATG | -0.305 | -0.664 | -0.747 | -0.495 | -0.163
52 | TACAGT | 0.889 | 0.427 | 0.72 | 0.851 | 0.726
53 | TAGCAC | 0.473 | 0.291 | 0.469 | 0.335 | 0.119
54 | CCAGAC | -1.13 | -0.646 | -0.925 | -0.959 | -1.59
55 | AATTCC | 0.763 | -0.479 | -0.292 | 0.906 | 0.43
56 | AAAAGC | -2.48 | -1.93 | -2.56 | -2.33 | -2.04
57 | GTAAGT | 0.072 | -0.107 | -0.121 | -0.018 | 0.192
58 | CCAACC | -1.96 | -0.43 | -1.78 | -1.72 | -2.81
59 | AGAAGT | 0.42 | -0.584 | -0.162 | 0.206 | 0.623
60 | ACGATA | 0.865 | -1.06 | -0.196 | 0.792 | 1.25
